The data set has as its system P. pastoris X33 cells. On the procedure: The open reading frame encoding POLY-gp144 (SEQ ID NO: 35) was cloned in the pPICZαA shuttle vector (Invitrogen), which was subsequently integrated in the P. pastoris genome by homologous recombination (as indicated by the manufacturer; P. pastoris X33 cells, Invitrogen). Gene expression was induced with methanol (1%) in BMMY-medium and the supernatant was analyzed for the presence of enzymatic activity after 1, 3 and 4 days. […] Subsequently, the optical density was spectrophotometrically recorded (FIG. 2). A drop in optical density indicates the secretion of a muralytic enzyme by P. pastoris. As a negative control, P. pastoris X33 without expression plasmid was included. Thus, the lysis of the substrate upon addition of the supernatants sample is a measure for successful recombinant production and secretion of POLY-gp144 (SEQ ID NO: 35) by P. pastoris.

Data on one molecule can be found in patent US10485854B2, “Method of reducing biofilms” (Lysando AG, priority 2010, dated 2019).

B1: POLY-gp144: fusion protein SEQ ID NO: 35: endolysin phiKZgp144 (SEQ ID NO: 1) with N-terminal peptide KRKKRKKRK (SEQ ID NO: 11) (protein)
chain: MGSKRKKRKKRKKVLRKGDRGDEVCQLQTLLNLCGYDVGKPDGIFGNNTFNQVVKFQKDNCLDSDGIVGKNTWAELFSKYSPPIPYKTIPMPTANKSRAAATPVMNAVENATGVRSQLLLTFASIESAFDYEIKAKTSSATGWFQFLTGTWKTMIENYGMKYGVLTDPTGALRKDPRISALMGAELIKENMNILRPVLKREPTDTDLYLAHFFGPGAARRFLTTGQNELAATHFPKEAQANPSIFYNKDGSPKTIQEVYNLMDGKVAAHRK
modifications: POLY-gp144
Take B1: the “toxic effect on the cell density of P. pastoris” value is “No toxic effect”.
